Test results taken from the supplement of paper PMC11417369.
Some of the results follow.

system: PF3D7_0420300 AP2 domain 1 (GST-tagged); test: gcPBM binding intensity (ln(normalized median fluorescence intensity)); higher = stronger DNA binding
Method in brief: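 Binding intensity values are the highest Masliner-normalised natural-log median intensity among replicate spots of either probe orientation. The binding step lasted 1 h in 1× PBS with 1% milk, 0.2 mg/ml BSA, 0.5% salmon testes DNA and 0.03% Triton X-100, using GST-tagged P. falciparum DNA-binding domains expressed in E. coli on an Agilent 4 × 180k array of primer-extended double-stranded 36-bp intergenic genomic probes plus negative controls. Alexa488 anti-GST antibody and a 488 nm scan detected bound protein.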

Sequence	gcPBM binding intensity (ln)
TTTTGTAGTTTATAAATAAAAGAGAATATGGTGCTT [CACACA_negctrl_site413]	9.22
TAAATAAATATATATACACACATATATATATATATA [CACACA_site598]	9.21
CAATTTATAAAGAAAACACACATATACATATATACA [CACACA_site1260]	9.58
TATTAAACAAATTATGCAAAAATAAATCAATATGTT [CACACA_negctrl_site171]	9.42
ATTATTTTATAATTCACACATAAATAAAAAAAAAAT [CACACA_site5290]	9.24
TTAGGAAGCTCACAAAATAAAGTGAAAAGAAGAAAA [XGTACX_negctrl_site572]	9.1
TGATTTCCAGGTTATTGTACAAAATTAATTTTCGAA [XGTACX_site2491]	8.99
AAAAGTTTTATTTAAATGAATTAATCTTTACTATAT [CACACA_negctrl_site282]	9.07
TATAGATACATATACACACACACACCCACATATATA [CACACA_site3436]	10.2
ATGTATGTGTAACATAGTACTTTTTAAAAGGATATT [XGTACX_site5328]	9.15
TATTTTTTATAATAATGTACATATATATATATAATA [XGTACX_site2329]	8.99
AATATCATATAAAAATGTACAAATTCTAAAACACGA [XGTACX_site1442]	9.65
GTATTCATGCTAAAGGTGCAATAATTTTTATAATAA [GTGCAC_site9603]	9.07
AAGATAAAATTATGTAGTACAAAAAAAAATAAAAAA [XGTACX_site139]	9.41
ATCAAACCTTTTAAATGTACATTCGGAGTAAAAAAA [XGTACX_site282]	8.99
TTAAAAATGTTGGAAAGTACATATTTTTTAAAAGTA [XGTACX_site802]	8.85
CGCCTATAAGCTTAGACACACAAATAAATAAATATA [CACACA_site1264]	9.02
TATTGGGGGTATAAACACAGTAAGTAAATAAATAAA [CACACA_negctrl_site1680]	9.29
TACCTAATTCGGTCCCGTACAAGTTAGTTTCAATTC [XGTACX_site2703]	9.18
AAAAAAAAAAAAAAGAGTACACAGACGTTCAAAGGT [XGTACX_site7566]	9.8
TGTATGTATTAATGCGCACACAAAAAATAACAATAT [CACACA_site1848]	9.65
TATTGATTTAGAAACACACACTCGAAGATGTTTAAC [CACACA_site1129]	9.37

Sequence	gcPBM binding intensity (ln)
TTTAAAAAATGTTATATTATATAATTAAAAAAAAAA [CACACA_negctrl_site1509]	8.88
ATATAGATATATAGTAGTACTTGTTATATAAGATAA [XGTACX_site6336]	9.25
ACAGAGCTTTAAATACGTACATAATATATATTAAAT [XGTACX_site8221]	9.19
ATAAAAAAAAAATAATGTACTTATATATATATATAT [XGTACX_site8282]	9.11
ATATATATATATAAATGTACATTGTGTGTTGTAAGA [XGTACX_site2434]	9.59
GTATATTATTTACGTTTGCACTTCATTTTATAGTAA	9.6
AATGGATGAATGAATGTATGAATGAATGTATGAATG [CACACA_negctrl_site91]	9.24
TTCTTCAAAAAAAATTGTACACATCTCTCAAATGTT [XGTACX_site2952]	8.88
TATTAATTGTGGCACCTTGTATGTTTACAATGACAT [CACACA_negctrl_site1383]	9.32
TTGTTCCACAAAAATTTAGTCAAAAAAAAATAAAAA [TGCATGCA_negctrl_site546]	8.79
ACAAAAAAAAAAATAACACACATGGGGGTGTATAAA [CACACA_site3797]	9.61
AATGAATAACAATACTATATGATTTTTAATACATTA [XGTACX_negctrl_site42]	9.12
TTAAATTTTTTTTTGTGTACGAAAAACAGAAAAAAT [XGTACX_site8625]	8.99
TATGTGTATGGGAATGCATGTAAATATGTACATATA [TGCATGCA_site737]	9.3
ATATATATATACATATGTACATATAAAATAATTTTG [XGTACX_site3731]	9.12
GTATTAGATAAATACACACACAAGCATATATTTTTA [CACACA_site3431]	9.76
TCTATTCATTTTGAAGGTACACATTTCTTTATAATA [XGTACX_site6218]	9.25
AAAAATATATATATATATATATATATAAGGAATATA [XGTACX_negctrl_site450]	9.23
AATATATCATTATATAAACACACAATATGTTTTTTA [CACACA_site9260]	9.24
AATAAATATATAAATACACACAAACATACATATATA [CACACA_site9340]	9.96
AATACAATATAGTGAAAAATAATTAAATACAATAAG [XGTACX_negctrl_site161]	9.6
CGTAAACAATTATGATGTACATAAAATATATATATA [XGTACX_site2705]	9.17
